About 2,300 (1%) of roughly 220,000 compounds were called active. The shares of active, inactive and inconclusive entries below differ from those in the screen. Calls come from the whole dose curve; as a rule, active = well fitted inhibition curve with a large enough effect; inconclusive = small, poorly fitted or top-dose-only effect, or effect the other way; inactive = no such curve, though single readings can be large or run the other way. Potencies of inconclusive entries are left out as doubtful fits.
Target: Neuropeptide S receptor (Homo sapiens) (UniProt Q6W5P4)
Assay: qHTS Assay for Antagonists of the Neuropeptide S Receptor: cAMP Signal Transduction; note: nearly all actives have a fitted effect of over 50% in size
Conditions: CHO-NPSR cells, cAMP TR-FRET, antagonist mode; activity change, negative = inhibition: at 38.3 µM (top of the series) unless noted
% is set by controls: 0 for no effect and ±100 for the full control effect; potency is the fitted concentration of half-maximal effect; tags give direction and shape of the fitted curve.

UniProt Q6W5P4, sequence (Q6W5P4 whole entry, looked up): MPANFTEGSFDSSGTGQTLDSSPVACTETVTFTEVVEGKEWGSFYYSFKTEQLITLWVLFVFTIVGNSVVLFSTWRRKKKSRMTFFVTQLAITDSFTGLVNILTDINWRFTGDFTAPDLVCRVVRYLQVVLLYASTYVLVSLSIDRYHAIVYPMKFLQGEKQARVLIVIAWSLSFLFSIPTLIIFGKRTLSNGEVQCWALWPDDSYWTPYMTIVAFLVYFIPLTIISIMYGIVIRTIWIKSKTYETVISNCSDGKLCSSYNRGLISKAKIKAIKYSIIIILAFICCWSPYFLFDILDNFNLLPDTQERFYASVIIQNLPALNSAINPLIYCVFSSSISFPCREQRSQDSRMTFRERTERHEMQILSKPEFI

| Structure (SMILES) | Potency | activity change, negative = inhibition |
| --- | --- | --- |
| Cc1cccc(C)c1NC(=O)COc1ccc2c(C)c(Cc3ccccc3)c(=O)oc2c1 | inconclusive [inhibitor, single point] | – |
| CC1(C)Cc2c(c(N3CCOCC3)nc3sc(-c4ccc(C(=O)O)o4)c(N)c23)CO1 | inconclusive [inhibitor, single point] | – |
| C(=N\Nc1nn[nH]n1)/c1ccccc1 | – | inactive: -11.3% [at 46.1 µM] |
| Cc1ccc(C)c(Cn2cnc3c(cnn3C(C)(C)C)c2=O)c1 | – | inactive: -13.7% [at 46.1 µM] |
| CN1CCN(S(=O)(=O)c2cccc(C(=O)N(c3ccccn3)C3CCCCC3)c2)CC1 | – | inactive: -13.3% [at 46.1 µM] |
| CCSc1nc(-c2ccc(OC)cc2)n(-c2nc3ccccc3s2)n1 | inconclusive [inhibitor, single point] | – |
| COCCCNC(=O)CN(C1CCCCC1)S(=O)(=O)c1ccc(C)cc1 | inconclusive [inhibitor, partial curve] | – |
| Cn1c(=O)c2c(nc(NCc3ccco3)n2C/C=C/c2ccccc2)n(C)c1=O | inconclusive [inhibitor, single point] | – |
| COc1cccc(C(=O)Oc2cc(N)n(S(=O)(=O)c3ccc(C)cc3)n2)c1OC | inconclusive [activator, partial curve] | – |
| COc1cccc(C(=O)N2CCN(Cc3ccccc3C(F)(F)F)CC2)c1 | inconclusive [inhibitor, full curve] | – |
| COc1cc(SSc2cc(OC)cc([N+](=O)[O-])c2N)c(N)c([N+](=O)[O-])c1 | active: 3.16 µM | – |
| CCOC(=O)N1CCN(c2cc3[nH]c(=S)[nH]c3cc2F)CC1 | – | inactive: -3.44% [at 46.1 µM] |
| CCOC(=O)c1cc2sccc2n1CC(=O)N1CCCc2ccccc21 | inconclusive [inhibitor, single point] | – |
| C(=C\c1ccccc1)/C=N/Nc1nncc(-c2ccccc2)n1 | – | inactive: 3.2% |
| C/C(=C\C(=O)c1ccncc1)Nc1ccccc1O | – | inactive: -7.28% [at 46.1 µM] |
| O=C(O)c1cccnc1C(=O)O | inconclusive [inhibitor, partial curve] | – |
| CCc1ccc(Nc2ncc3c(n2)CC(c2ccco2)CC3=O)cc1 (centres undefined) | inconclusive [inhibitor, single point] | – |
| O=C(CSc1nccc(=O)[nH]1)c1ccccc1Br | inconclusive [inhibitor, partial curve] | – |
| COCCNC(=S)NC(=O)c1ccc(C(C)(C)C)cc1 | – | inactive: -45.3% |
| O=c1ccccn1Cc1c(Cl)cccc1Cl | inconclusive [inhibitor, single point] | – |
| CCOC(=O)N1CCN(C(=O)CN(Cc2ccc(Cl)cc2)S(=O)(=O)c2ccc(C)cc2)CC1 | inconclusive [inhibitor, single point] | – |
| COc1ccc(C(C)(C)C)cc1NC(=O)Nc1ccc2c(c1)OCO2 | – | inactive: -59% |
| O=C(CNS(=O)(=O)c1ccccc1)OCC(=O)c1ccc([N+](=O)[O-])cc1 | – | inactive: 10.4% |
| COC(=O)c1ccc2c(=O)n(CC3CCCO3)c(SCC(=O)Nc3ccccc3OC)nc2c1 (centres undefined) | inconclusive [inhibitor, partial curve] | – |
| COc1ccc(Cn2nnnc2CN(Cc2cc3ccc(C)cc3[nH]c2=O)C2CCCC2)cc1 | inconclusive [inhibitor, partial curve] | – |

| Structure (SMILES) | Potency | activity change, negative = inhibition |
| --- | --- | --- |
| O=C(c1ccco1)N(Cc1cccc([N+](=O)[O-])c1)c1ccc(Br)cc1 | – | inactive: 1.96% |
| COc1ccc2cc(C#N)c(SCC(=O)N3CCCC3)nc2c1 | – | inactive: -21.7% [at 46.1 µM] |
| O=C(N/N=C/c1ccncc1)c1ccccc1[N+](=O)[O-] | – | inactive: 20.9% |
| Nc1cc(S(=O)(=O)Nc2ccccc2Cl)ccc1N1CCOCC1 | – | inactive: 7.29% |
| CCOCCCNC(=O)CN1C(=O)CSc2cc(S(=O)(=O)N3CCCCCC3)ccc21 | – | inactive: -11% [at 46.1 µM] |
| COC(=O)c1oc2ccc(OC)cc2c1N | – | inactive: 13.2% |
| CC(C)(C)OC(=O)N[C@@H](Cc1ccccc1)c1nnc(S(=O)(=O)Cc2ccccc2)o1 | inconclusive [inhibitor, partial curve] | – |
| O=C(Nc1ccc2c(c1)C(=O)N(CC1CCCO1)C2=O)c1ccccc1Br (centres undefined) | – | inactive: -1.87% [at 46.1 µM] |
| O=S1(=O)C=C(Sc2nc3ccccc3s2)c2ccccc21 | active: 10 µM | – |
| O=C(Cn1cnc2ccccc2c1=O)OCCCCN1C(=O)c2ccccc2C1=O | inconclusive [inhibitor, single point] | – |
| CC1(C)Cc2ccccc2C(/C(=N\Nc2cccc(Cl)c2)C(N)=O)=N1 | inconclusive [inhibitor, single point] | – |
| O=C1ON=C(c2ccccc2)/C1=C/c1ccc(OS(=O)(=O)c2ccccc2)cc1 | active: 6.31 µM | – |
| O=C(Nc1ccc2c(c1)C(=O)NC2=O)c1ccc(Cl)s1 | inconclusive [activator, single point] | – |
| COC(=O)CCCC1=CC2=C(c3ccccc3)C(=O)C(C)(OC(=O)C3CCCC3)C(=O)C2=CN1CCc1c[nH]c2ccccc12 (centres undefined) | – | inactive: -4.82% |
| C#CCn1c(=NC(=O)c2ccco2)sc2cccc(Cl)c21 | inconclusive [inhibitor, single point] | – |
| COc1cc(C(=O)OC(C)C(=O)N2CCc3ccccc3C2)ccc1OCC(=O)N1CCOCC1 (centres undefined) | – | inactive: -13.7% [at 46.1 µM] |
| Cc1cccc(OC2(c3ccccc3)OC(=O)c3ccccc32)c1C (centres undefined) | inconclusive [inhibitor, partial curve] | – |
| O=C(Nc1ccccc1N1CCN(C(=O)c2ccccc2)CC1)c1cc(Br)ccc1Cl | inconclusive [inhibitor, partial curve] | – |
| Cc1ccc(C(=O)CSc2n[nH]c(C)n2)cc1 | – | inactive: 1.92% [at 46.1 µM] |
| O=C(CSc1nnc(Cc2cccs2)n1Cc1ccco1)Nc1ccc(Br)cc1 | inconclusive [inhibitor, single point] | – |
| C=CCC1(CC=C)CCCN1Cc1nc(COc2ccccc2)no1 | inconclusive [inhibitor, single point] | – |
| CC(C)(C)n1ncc(Oc2ccccc2[N+](=O)[O-])c(Cl)c1=O | – | inactive: 14.9% |
| CC1(C)CC(=O)c2c(noc2-c2ccccc2)C1 | inconclusive [activator, partial curve] | – |
| CCOC(=O)N1CCC2(CC1)C(C#N)=C(N)Oc1c2sc2nc(C)cc(C)c12 | inconclusive [inhibitor, partial curve] | – |

Source: PubChem BioAssay AID1461 (National Center for Advancing Translational Sciences (NCATS), 2008)
